Results from PubChem BioAssay AID493208 (National Center for Advancing Translational Sciences (NCATS), 2011).
Out of some 44,000 compounds screened, about 340 (0.77%) were called active. Not shown: some 5% with an inconclusive outcome. The call rests on the fitted dose curve; in most records, active means well fitted inhibition curve with a large enough effect; inconclusive means small, poorly fitted or top-dose-only effect; inactive means flat fitted curve, though single readings scatter. The list shows a part of the results.

Test: Acumen qHTS Assay for Inhibitors of the mTORC1 Signaling Pathway in MEF (Tsc2-/-, p53-/-) Cells: Sytravon;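 further: plate controls were DMSO for no effect and rapamycin for full effect; nearly all actives have a fitted effect of over 50% in size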
Conditions: phospho-rpS6 immunofluorescence/PI, 24 h; series mostly up to 38.3 µM; activity change, negative = inhibition: at the top concentration
Outline: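 Readout is phospho-S6 Alexa 488 signal normalized to PI per well, reported as % active cells with thresholds set from rapamycin (7.5 nM) and DMSO controls. Cells: Tsc2-/-, p53-/- MEFs, 24 hrs compound at 37 C; PI cell number serves as viability.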

Activity change, negative = inhibition, inactive:
O=C(CSc1cn(CC(=O)N2CCCCC2)c2ccccc12)Nc1ccccc1 -4.85%, N#Cc1nc(-c2ccc(COc3ccc(Cl)cc3)o2)oc1N1CCC(C(N)=O)CC1 0.554%, Cc1ccc(C)c(NC(=O)C2CCCN(c3ncnc4onc(C)c34)C2)c1 (stereo unspecified) -2.36%, O=C(Cn1c(=O)n(-c2ccccc2)c(=O)c2c3c(sc21)CCCC3)Nc1ccc(F)cc1F 4.05%, Cc1cc(=O)n(Cc2ccc(Cl)cc2)c2c1c(C)nn2-c1ccccc1 0.437%, COc1ccc(OC)c(S(=O)(=O)NCCS(=O)(=O)N2CCN(c3ccccc3)CC2)c1 -0.217%, COc1cccc(CNC(=O)c2cccc(-n3c(C)nc4cccnc43)c2)c1OC -4.78%, O=C(NCc1noc2ccccc12)N1CCN(c2ccccc2)CC1 -1.49%, CCc1ccccc1NC(=O)N1CCCn2nc(C)cc21 -3%, O=C(NCC(c1ccco1)S(=O)(=O)c1cccs1)c1ccc(F)c(F)c1 (stereo unspecified) -4.93%, Cc1nc(-c2ccccc2)sc1-c1ccc(SCC(=O)NCc2ccccc2Cl)nn1 1.69%, CC1CCN(c2nn3c(=O)c(C(=O)NC(C)C)cnc3s2)CC1 0.892%, Cc1nn(C)c2c1c(-c1ccccc1)cc(=O)n2CC(=O)NC(C)c1ccccc1 (stereo unspecified) 3.33%, CCCOc1ccc(C2c3c(-c4c(C)cc(C)cc4O)n[nH]c3C(=O)N2CCO)cc1 (stereo unspecified) 0.458%, CCOc1ccc(-c2cc3nc(C4CCN(C(=O)OC(C)(C)C)CC4)c(C(=O)Nc4cc(OC)ccc4OC)cn3n2)cc1 1.78%, Cc1ccc(Cl)cc1NC(=O)c1sc(-n2nc(C)c(Cc3ccc4c(c3)OCO4)c2C)nc1C 0%, O=C(Cn1c(=O)n(Cc2ccccc2)c(=O)c2sc3ccccc3c21)Nc1ccccc1 -12.5%, CCCCCn1c(CN2CCN(c3ccc(OC)cc3)CC2)nc2c1c(=O)[nH]c(=O)n2C 3.71%, Cc1ccc(Cl)cc1NC(=O)Nc1cccc(OCc2cc(=O)n3ccccc3n2)c1 -11.7%, COc1ccc(-n2c(-c3ccco3)nc3c(cnn3-c3ccccc3Cl)c2=O)cc1 1.76%, COc1ccc(C)cc1NC(=O)CC1NCCNC1=O (stereo unspecified) 1.01%, Cc1cc(=O)n(Cc2ccccc2)c2c1c(C)nn2C -19.6%, COCCNC(=O)c1ccc2nc(Cc3ccccc3)oc2c1 3.95%, CC(C)N(CCCNC(=O)Cn1ncc2c([nH]c3ccccc32)c1=O)Cc1ccccc1 -9.26%, Cc1cc(C)c2c(=O)cc(C(=O)Nc3sc4c(c3C(=O)NCC3CCCO3)CCCC4)oc2c1 (stereo unspecified) -3.89%, Cc1ccc(Nc2nnc(-c3ccc(C)c(S(=O)(=O)N4CCOCC4)c3)c3ccccc23)cc1 6.28%, CCC(=O)C1=C(c2ccc(OC)c(OC)c2)N(C(=O)CC)n2c(nnc2-c2ccc(C)cc2)S1 -0.117%, CC(=O)c1ccc(N2CCN(c3ccc4cc(S(=O)(=O)N5CCCCC5)ccc4n3)CC2)cc1 3.25%, COc1ccc(-c2nc(CS(=O)(=O)CC(=O)NCCc3ccc(C)cc3)c(C)o2)cc1 -5.05%, CCOC(=O)c1ccc(NC(=O)CSc2nc3ccccc3c(=O)n2CCC(=O)NC2CCCCC2)cc1 1.63%, COc1ccc(OC)c(CNS(=O)(=O)c2ccc(-c3coc(C)n3)cc2)c1 -22.1%, CC(=O)c1cc(-c2ccccc2)n(CC(=O)Nc2ccc(C)c(C)c2)c1C 1.16%, CCOc1ccc(CNC(=O)CS(=O)(=O)c2cccc3nsnc23)cc1 -4.4%, COc1ccccc1-c1nc(SCC(=O)NCc2ccccc2)c2c(=O)n(C)c(=O)n(C)c2n1 3.08%, COc1ccccc1-c1noc(-c2ccc(NC3CCCC3)c([N+](=O)[O-])c2)n1 -4.8%, Cc1cc2nc(-c3ccc(NC(=O)c4ccccc4F)cc3)oc2cc1C 8.85%, Cc1cccc(C(=O)Nc2ccc3nc(SCCOc4ccccc4)sc3c2)c1 0.479%, COc1ccc(CCNc2nc(SCc3ccc(Cl)cc3)nc3ccccc23)cc1OC -0.625%, Nc1ncc(S(=O)(=O)Nc2ccc(F)cc2F)cn1 -2.1%, COc1ccc(C2C=C(c3ccccc3)Nc3nc(NC(=O)/C=C/c4ccccc4Cl)nn32)cc1 (stereo unspecified) 5.53%, CCc1cnc2c(c1SCC(=O)NCc1ccc(F)cc1)c(=O)n(C)c(=O)n2C 0.166%, Nc1c(C(=O)Nc2cccc(F)c2)c2ccccn2c1C(=O)c1ccccc1 -0.225%, CCOC(=O)c1c(NC(=O)COc2cccc(C)c2C)sc(C(C)=O)c1C 12.7%, COc1ccc(N2CCN(C(c3ccccc3F)c3sc4nc(-c5ccco5)nn4c3O)CC2)cc1 (stereo unspecified) -7.53%, COc1ccc(Cl)cc1NC(=O)Cn1c(=O)c(-c2ccccc2NC(C)=O)nc2ccccc21 -16.6%, Cc1cc(C)c2c(c1)c(C)cc1nnc(SCC(=O)c3ccc(F)cc3)n12 -1.38%, COC(=O)c1ccccc1NC(=O)Cn1c(=O)cc(C)c2c(C)nn(C)c21 -1.33%, CCCCC(=O)N1CCc2cc(OC)c(OC)cc2C1COc1ccc(OC)cc1 (stereo unspecified) 8.44%, COc1ccc(NC(=O)CN2C(=O)COc3ccc(S(=O)(=O)N4CCCCC4)cc32)cc1OC -1.17%, Cc1ccc(C)c(Cn2c(C(=O)O)c(CNCc3cccs3)c3ccccc32)c1 -0.581%, Cc1cc(-c2ccccc2)n2nc(-c3ccccc3)cc2n1 -8.32%, CN(C)CCNC(=O)C(=O)NCC(c1ccc2c(c1)OCO2)N1CCOCC1 (stereo unspecified) 0.4%, Cc1c(C(=O)O)oc2c1-c1nn(Cc3ccc(Cl)cc3)cc1CC2 -1.39%, CCOc1ccc(C(c2c(O)cc(C)n(Cc3ccco3)c2=O)N2CCCCC2)cc1 (stereo unspecified) -8.87%, Cc1ccc2cccc(NC(=O)C(C)Oc3ccc(Cl)cc3Cl)c2n1 (stereo unspecified) -15.2%, COc1cccc(CNS(=O)(=O)c2ccc3c(c2)C(C(C)C)C(=O)N3)c1 (stereo unspecified) -24.3%, Cc1ccc(NC(=O)CC2Sc3ccc(C(F)(F)F)cc3NC2=O)cc1 (stereo unspecified) -16.8%, COc1ccccc1C(=O)Nc1c(C(=O)Nc2ccccc2F)oc2ccccc12 -10.7%, CC(=O)c1ccc(NC(=O)CN(C)S(=O)(=O)c2cnc[nH]2)cc1 -2.51%, Cc1cc(Cl)ccc1OCC(=O)N1CCC(c2nc3ccccc3s2)CC1 -9.18%, COc1ccc(CNC(=O)Nc2cn(CC(C)C)c(=O)c3ccccc23)cc1 1.95%, Cc1ccc(OCCSc2nc(C)c(Cc3ccccc3)c(=O)[nH]2)cc1 -0.78%, Cc1cc(C)c(NC(=O)CSc2nncn3c2cc2oc(C)cc23)c(C)c1 0.774%, O=C(CCCc1ccccc1)NC1CC(=O)N(c2ccc(F)cc2)C1 (stereo unspecified) 2.12%, CC(=O)c1cccc(NS(=O)(=O)c2cc3c(cc2C)N(C(C)=O)CCO3)c1 1.6%, Cc1ccc(NC(=O)N2CCC(CN3CCCC3)CC2)c(C)c1 -9.17%, Cc1ccc(-c2nc(C(=O)NCc3ccccc3Cl)c3n2CCCCC3)cc1 -1.11%, CCc1cccc(NC(=O)c2ccc(NC(=O)N3CCSc4ncccc43)cc2)c1 0.143%, Cc1ccc(NC(=O)N2CCN(c3cc(-c4noc(C)n4)ccc3C)CC2)c(F)c1 -11.9%, CCC(=O)Oc1ccc(C2Nc3ccccc3-c3nnc(SC)nc3O2)cc1 (stereo unspecified) -2.75%, Cc1ccc(S(=O)(=O)Nc2cc3c(cc2N2CCOCC2)n(C)c(=O)n3C)cc1 -17.5%, Cc1ccc2nc(-c3cc(NC(=O)COc4ccc(C)c(C)c4)ccc3Cl)oc2c1 -15.8%, COC(=O)C1CCN(S(=O)(=O)c2ccc(N3CCCCS3(=O)=O)cc2)CC1 0%, COC(=O)c1cc(C)nc2c1c(=O)nc(SCc1ccccc1C)n2C1CC1 5.22%, Cc1cccc(NC(=O)C(Cc2ccccc2)NS(=O)(=O)c2ccc3c(c2)c(=O)n(C)c(=O)n3C)c1 (stereo unspecified) -7.47%, Cc1ccc(C(=O)NCC(c2ccc3c(c2)OCO3)N2CCOCC2)cc1 (stereo unspecified) -1.63%, CCc1nn(CCCC(=O)N2CCN(c3cccc(OC)c3)CC2)c(=O)c2cc3occc3n12 -7.49%, Cc1c(-c2nc(-c3ccc4c(c3)OCO4)no2)nnn1-c1ccc(C(C)C)cc1 4.79%, Cc1ccc(S(=O)Cc2nc(-c3ccc(C(=O)NCc4cccc(C)c4)cc3)oc2C)cc1 (stereo unspecified) 1.25%, O=C(CCn1nc(-c2ccc(Cl)cc2)ccc1=O)NCCc1ccccc1 6.78%, CC(=O)Nc1c(C)nn(-c2ccccc2)c1N1CCC(C(=O)NCc2ccccc2Cl)CC1 -18.1%, CCOC(=O)c1c(NC(=O)CSc2cn(CCNC(=O)c3c(F)cccc3F)c3ccccc23)sc2c1CCC2 4.83%, COc1ccc(CCN2C(=O)c3[nH]nc(-c4ccccc4O)c3C2c2ccc(OC)c(OC)c2)cc1 (stereo unspecified) -24%, CCOC(=O)COc1ccc(F)cc1C(=O)c1ccn2nc(-c3ccc(Cl)cc3)cc2n1 1.71%, CCOC(=O)c1noc2ncnc(Nc3cccc(OC)c3)c12 -7.8%, O=C(COc1ccccc1Cl)Nc1ccc2nc(SCC(=O)N3CCCC3)sc2c1 -5.64%, CCCn1c(=O)c2sccc2n2c(CCCC(=O)NCc3ccccc3)nnc12 1.65%, COc1cccc(NC(=O)CSc2nc(-c3ccccc3Cl)nc3c2Cc2c(CO)cnc(C)c2O3)c1 -2.33%, COc1ccc(-c2cc(-c3ccccc3)nc(SCC(=O)Nc3ccccc3F)c2C#N)cc1 -0.167%, CCOC(=O)C1=C(CS(=O)(=O)c2ccc(OC)c(Cl)c2)NC(=O)NC1c1cccc(OC)c1 (stereo unspecified) -0.922%, CCc1ccc(S(=O)(=O)c2cn(C)c3cc(N4CCCC4)c(F)cc3c2=O)cc1 -1.21%, COC(=O)c1nnn(-c2ccc(Br)cc2)c1C(=O)OC 3.17%, O=C(NCc1ccco1)c1ccc2c(c1)N(Cc1ccc(Cl)cc1)C(=O)c1ccccc1S2(=O)=O -11.2%, CN(Cc1ccccc1)c1ccc(-c2nc(-c3ccncc3)no2)cc1[N+](=O)[O-] -4.86%, Cc1cc(C)cc(C(=O)NCC(c2ccc(N(C)C)cc2)N2CCCC2)c1 (stereo unspecified) 7.33%, COc1cccc(NC(=O)C2CCCN(S(=O)(=O)c3cccc4nonc34)C2)c1 (stereo unspecified) -47.5%
